# Source: the supplement of paper PMC8728848
# This is one part of the list.
# Experiments:
# Assay in all cases: glycan array binding signal (z-score within array); higher = stronger binding
# Details in all cases: glycan notation: IUPAC condensed, linker removed
# [1] = target: Gal(b1-4)GlcNAc(b1-2)[Gal(b1-4)GlcNAc(b1-4)]Man(a1-3)[Gal(b1-4)GlcNAc(b1-2)Man(a1-6)]Man(b1-4)GlcNAc(b1-4)GlcNAc
# Outline: (§1)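 Glycan array data were curated from 3228 arrays in the Consortium for Functional Glycomics database and kept only where the protein sequence was available. Glycan names were converted to IUPAC-condensed notation, and columns mapping to the same glycan were averaged. The binding signal is a within-array Z-score, averaged across arrays of the same protein sequence at different concentrations or buffers and across linkers. Negative Z-scores can be read as non-binding.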
# [2] = target: Gal(b1-4)GlcNAc(b1-2)[Gal(b1-4)GlcNAc(b1-4)]Man(a1-3)[Gal(b1-4)GlcNAc(b1-2)[Gal(b1-4)GlcNAc(b1-6)]Man(a1-6)]Man(b1-4)GlcNAc(b1-4)GlcNAc
# Outline: as §1
# [3] = target: Gal(b1-4)GlcNAc(b1-2)[Gal(b1-4)GlcNAc(b1-4)]Man(a1-3)[GlcNAc(b1-4)][Gal(b1-4)GlcNAc(b1-2)Man(a1-6)]Man(b1-4)GlcNAc(b1-4)GlcNAc
# Outline: as §1
# [4] = target: Gal(b1-4)GlcNAc(b1-2)[Gal(b1-4)GlcNAc(b1-4)]Man(a1-3)[GlcNAc(b1-4)][Gal(b1-4)GlcNAc(b1-2)[Gal(b1-4)GlcNAc(b1-6)]Man(a1-6)]Man(b1-4)GlcNAc(b1-4)GlcNAc
# Outline: as §1
# [5] = target: Gal(b1-4)GlcNAc(b1-2)[Gal(b1-4)GlcNAc(b1-6)]Man(a1-6)[Gal(b1-4)GlcNAc(b1-2)Man(a1-3)]Man(b1-4)GlcNAc(b1-4)GlcNAc
# Outline: as §1
# [6] = target: Gal(b1-4)GlcNAc(b1-2)[Gal(b1-4)GlcNAc(b1-6)]Man(a1-6)[Gal(b1-4)GlcNAc(b1-2)Man(a1-3)]Man(b1-4)GlcNAc(b1-4)[Fuc(a1-6)]GlcNAc
# Outline: as §1
# [7] = target: Gal(b1-4)GlcNAc(b1-2)[Gal(b1-4)GlcNAc(b1-6)]Man(a1-6)[GlcNAc(b1-4)][Gal(b1-4)GlcNAc(b1-2)Man(a1-3)]Man(b1-4)GlcNAc(b1-4)GlcNAc
# Outline: as §1
# [8] = target: Gal(b1-4)GlcNAc(b1-2)[Gal(b1-4)GlcNAc(b1-6)]Man(a1-6)[GlcNAc(b1-4)][Gal(b1-4)GlcNAc(b1-2)[Gal(b1-4)GlcNAc(b1-4)]Man(a1-3)]Man(b1-4)GlcNAc(b1-4)[Fuc(a1-6)]GlcNAc
# Outline: as §1
# [9] = target: Gal(b1-4)GlcNAc(b1-3)Gal(b1-3)GalNAc
# Outline: as §1
# [10] = target: Gal(b1-4)GlcNAc(b1-3)Gal(b1-3)GlcNAc
# Outline: as §1
# [11] = target: Gal(b1-4)GlcNAc(b1-3)Gal(b1-4)Glc
# Outline: as §1
# [12] = target: Gal(b1-4)GlcNAc(b1-3)Gal(b1-4)GlcNAc
# Outline: as §1
# [13] = target: Gal(b1-4)GlcNAc(b1-3)Gal(b1-4)GlcNAc(b1-2)Man(a1-3)[Gal(b1-4)GlcNAc(b1-3)Gal(b1-4)GlcNAc(b1-2)Man(a1-6)]Man(b1-4)GlcNAc(b1-4)GlcNAc
# Outline: as §1
# [14] = target: Gal(b1-4)GlcNAc(b1-3)Gal(b1-4)GlcNAc(b1-2)Man(a1-3)[Gal(b1-4)GlcNAc(b1-3)Gal(b1-4)GlcNAc(b1-2)Man(a1-6)]Man(b1-4)GlcNAc(b1-4)[Fuc(a1-6)]GlcNAc
# Outline: as §1
# [15] = target: Gal(b1-4)GlcNAc(b1-3)Gal(b1-4)GlcNAc(b1-2)[Gal(b1-4)GlcNAc(b1-3)Gal(b1-4)GlcNAc(b1-6)]Man(a1-6)[Gal(b1-4)GlcNAc(b1-3)Gal(b1-4)GlcNAc(b1-2)Man(a1-3)]Man(b1-4)GlcNAc(b1-4)GlcNAc
# Outline: as §1
# [16] = target: Gal(b1-4)GlcNAc(b1-3)Gal(b1-4)GlcNAc(b1-2)[Gal(b1-4)GlcNAc(b1-3)Gal(b1-4)GlcNAc(b1-6)]Man(a1-6)[Gal(b1-4)GlcNAc(b1-3)Gal(b1-4)GlcNAc(b1-2)Man(a1-3)]Man(b1-4)GlcNAc(b1-4)[Fuc(a1-6)]GlcNAc
# Outline: as §1
# [17] = target: Gal(b1-4)GlcNAc(b1-3)Gal(b1-4)GlcNAc(b1-3)Gal(b1-4)GlcNAc
# Outline: as §1
# [18] = target: Gal(b1-4)GlcNAc(b1-3)Gal(b1-4)GlcNAc(b1-3)Gal(b1-4)GlcNAc(b1-2)Man(a1-3)[Gal(b1-4)GlcNAc(b1-3)Gal(b1-4)GlcNAc(b1-3)Gal(b1-4)GlcNAc(b1-2)Man(a1-6)]Man(b1-4)GlcNAc(b1-4)GlcNAc
# Outline: as §1
# [19] = target: Gal(b1-4)GlcNAc(b1-3)Gal(b1-4)GlcNAc(b1-3)Gal(b1-4)GlcNAc(b1-2)Man(a1-3)[Gal(b1-4)GlcNAc(b1-3)Gal(b1-4)GlcNAc(b1-3)Gal(b1-4)GlcNAc(b1-2)Man(a1-6)]Man(b1-4)GlcNAc(b1-4)[Fuc(a1-6)]GlcNAc
# Outline: as §1
# [20] = target: Gal(b1-4)GlcNAc(b1-3)Gal(b1-4)GlcNAc(b1-3)Gal(b1-4)GlcNAc(b1-2)[Gal(b1-4)GlcNAc(b1-3)Gal(b1-4)GlcNAc(b1-3)Gal(b1-4)GlcNAc(b1-6)]Man(a1-6)[Gal(b1-4)GlcNAc(b1-3)Gal(b1-4)GlcNAc(b1-3)Gal(b1-4)GlcNAc(b1-2)Man(a1-3)]Man(b1-4)GlcNAc(b1-4)[Fuc(a1-6)]GlcNAc
# Outline: as §1
# [21] = target: Gal(b1-4)GlcNAc(b1-3)Gal(b1-4)GlcNAc(b1-3)Gal(b1-4)GlcNAc(b1-3)Gal(b1-4)GlcNAc(b1-2)Man(a1-3)[Gal(b1-4)GlcNAc(b1-3)Gal(b1-4)GlcNAc(b1-3)Gal(b1-4)GlcNAc(b1-3)Gal(b1-4)GlcNAc(b1-2)Man(a1-6)]Man(b1-4)GlcNAc(b1-4)GlcNAc
# Outline: as §1
# [22] = target: Gal(b1-4)GlcNAc(b1-3)Gal(b1-4)GlcNAc(b1-3)Gal(b1-4)GlcNAc(b1-3)Gal(b1-4)GlcNAc(b1-2)Man(a1-3)[Gal(b1-4)GlcNAc(b1-3)Gal(b1-4)GlcNAc(b1-3)Gal(b1-4)GlcNAc(b1-3)Gal(b1-4)GlcNAc(b1-2)Man(a1-6)]Man(b1-4)GlcNAc(b1-4)[Fuc(a1-6)]GlcNAc
# Outline: as §1
binder,measurement,setting,value
Clrb (Mus musculus) (protein) ITGATKTEQIPVNKTYAACPQNWIGVENKCFYFSEYPSNWTFAQAFCMAQEAQLARFDNQDELNFLMRYKANFDSWIGLHRESSEHPWKWTDNTEYNNTIPIRGEERFAYLNNNGISSTRIYSLRMWICSKLNSYSLHCQTPFFPSGTKHHHHHHHHG,glycan array binding signal (z-score),[1],-0.432
same,glycan array binding signal (z-score),[2],-0.42
same,glycan array binding signal (z-score),[3],-0.452
same,glycan array binding signal (z-score),[4],-0.315
same,glycan array binding signal (z-score),[5],-0.184
same,glycan array binding signal (z-score),[6],-0.339
same,glycan array binding signal (z-score),[7],-0.157
same,glycan array binding signal (z-score),[8],-0.087
same,glycan array binding signal (z-score),[9],-0.411
same,glycan array binding signal (z-score),[10],-0.508
same,glycan array binding signal (z-score),[11],-0.33
same,glycan array binding signal (z-score),[12],-0.321
same,glycan array binding signal (z-score),[13],-0.164
same,glycan array binding signal (z-score),[14],-0.495
same,glycan array binding signal (z-score),[15],0.09
same,glycan array binding signal (z-score),[16],-0.381
same,glycan array binding signal (z-score),[17],-0.398
same,glycan array binding signal (z-score),[18],-0.111
same,glycan array binding signal (z-score),[19],-0.301
same,glycan array binding signal (z-score),[20],-0.324
same,glycan array binding signal (z-score),[21],-0.166
same,glycan array binding signal (z-score),[22],0.109
